Paper PMC4336329 (PLoS ONE, 2015)
In all, about 310,000 compounds went through this assay and about 14,000 (4.5%) showed an effect of 50% or more. The effect is printed as a negative number. Some of the results follow. Where a SMILES comes first, the peptide text is derived from it. [ ]: non-standard residue; d: D form. pGlu = O=C1CC[CH](C(=O)O)N1

target: human ether-à-go-go-related gene (hERG) potassium channel (human, UniProt Q12809); assay: primary screen, population patch clamp on CHO cells stably expressing hERG
Sequence (Q12809 whole entry, looked up): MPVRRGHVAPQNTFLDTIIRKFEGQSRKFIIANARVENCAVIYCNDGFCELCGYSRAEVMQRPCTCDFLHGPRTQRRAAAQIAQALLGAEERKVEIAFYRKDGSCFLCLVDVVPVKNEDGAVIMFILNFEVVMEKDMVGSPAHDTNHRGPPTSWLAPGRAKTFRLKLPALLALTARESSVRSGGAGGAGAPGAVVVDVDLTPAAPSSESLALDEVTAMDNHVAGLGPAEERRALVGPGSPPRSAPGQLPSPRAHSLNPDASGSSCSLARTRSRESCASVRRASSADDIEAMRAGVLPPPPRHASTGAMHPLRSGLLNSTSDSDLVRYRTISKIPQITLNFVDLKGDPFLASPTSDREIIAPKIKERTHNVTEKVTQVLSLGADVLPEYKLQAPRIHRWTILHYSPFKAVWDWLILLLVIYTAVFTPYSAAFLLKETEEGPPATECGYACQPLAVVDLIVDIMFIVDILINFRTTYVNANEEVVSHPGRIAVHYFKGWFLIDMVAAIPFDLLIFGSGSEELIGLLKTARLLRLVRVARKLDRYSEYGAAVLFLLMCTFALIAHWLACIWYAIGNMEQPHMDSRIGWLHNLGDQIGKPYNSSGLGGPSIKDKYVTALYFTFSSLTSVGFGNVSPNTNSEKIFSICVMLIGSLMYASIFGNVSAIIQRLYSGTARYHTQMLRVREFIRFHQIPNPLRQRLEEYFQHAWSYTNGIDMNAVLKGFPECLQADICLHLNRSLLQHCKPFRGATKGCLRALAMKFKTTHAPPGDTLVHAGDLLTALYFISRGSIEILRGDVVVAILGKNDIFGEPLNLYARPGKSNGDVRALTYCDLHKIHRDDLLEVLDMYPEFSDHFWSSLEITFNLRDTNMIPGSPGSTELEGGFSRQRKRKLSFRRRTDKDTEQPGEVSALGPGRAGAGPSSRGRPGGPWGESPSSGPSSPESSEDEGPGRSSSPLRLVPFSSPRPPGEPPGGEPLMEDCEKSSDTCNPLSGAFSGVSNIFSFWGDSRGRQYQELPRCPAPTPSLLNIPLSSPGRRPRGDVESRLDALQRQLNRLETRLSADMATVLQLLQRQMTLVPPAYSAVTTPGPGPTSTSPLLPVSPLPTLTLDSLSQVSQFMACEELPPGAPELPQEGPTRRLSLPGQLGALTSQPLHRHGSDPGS
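Also: peak tail current of the secondary pulse compared with the same well before compound.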

| SMILES | hERG current change (%, negative = inhibition) at 10uM [%] |
| --- | --- |
| O=C1NC(=Nc2ccccc2)SC1(CO)CO | 5.16 |
| CCCn1ncc(CN2CCC(Cc3cccc(F)c3)(C(=O)OCC)CC2)c1C | -59.7 |
| O=S1(=O)CC(NCc2ccccc2)C(Nc2ccccc2)C1 (stereo not drawn) | -21.2 |
| Cc1ccc(C(=O)NC2CCN(CC(=O)NC3CCC(C)CC3)CC2)cc1 (stereo not drawn) | 7.67 |
| COc1ccc(-c2cc(C(=O)N(C)Cc3ccc(OC)c(OC)c3OC)c3ccccc3n2)cc1OC | -5.07 |
| CC1CCCc2sc3nc(N4CCN(CCO)CC4)n4ncnc4c3c21 (stereo not drawn) | -25.6 |
| CC(=O)Nc1ccc(C(=O)NNC(=O)c2ccccc2-n2cccc2)cc1 | 6.54 |
| COc1ccccc1N1CCN(c2nc(-c3ccccc3)cc(C(F)(F)F)n2)CC1 | 12.8 |
| Cc1sc2ncn(CC(=O)NCCCC(=O)Nc3ccc(C(C)C)cc3)c(=O)c2c1C | -3.44 |
| CCOC(=O)Cc1csc(NC(=O)CSc2nnc(-c3ccc(F)cc3)o2)n1 | 4.97 |
| CCc1cccc(C)c1NC(=O)CN(C)Cc1ccc(Br)cc1 | 12.4 |
| CC(NC(=O)c1cc(-c2ccncc2)nc2ccc(Br)cc12)C1CCCO1 (stereo not drawn) | -8.65 |
| CC(N=C(NS(=O)(=O)c1ccc(Cl)cc1)c1ccccc1)C(=O)O (stereo not drawn) | 11 |
| O=C(CO/N=C/c1ccc(OC(F)F)cc1)NC1CCCCC1 | -8.59 |
| Cc1cccc(NC(=O)CN2C(=O)N/C(=C/c3cc(C)n(-c4ccncc4)c3C)C2=O)c1 | 7.19 |
| O=S(=O)(Nc1ccc(-c2nnc(SCc3ccc(Cl)cc3)o2)cc1)c1ccccc1 | 17.8 |
| Cc1nn(Cc2ccc(Cl)cc2)c(C)c1NC(=O)CSc1n[nH]c(C)c1[N+](=O)[O-] | -14.9 |
| Cc1ccc(Cl)cc1N1CCN(Cc2cc(=O)n3ccsc3n2)CC1 | -43 |
| CCN(c1ccc(OC)cc1)S(=O)(=O)c1nnc(NC(=O)C(C)C)s1 | 18.2 |

| SMILES | hERG current change (%, negative = inhibition) at 10uM [%] |
| --- | --- |
| CCOc1cc(CNCCN2CCOCC2)ccc1OCc1ccccc1Cl.Cl | -41.8 |
| CN(C)C(Cc1ccccc1)C(=O)c1c[nH]c2ccccc12.Cl (stereo not drawn) | 3.47 |
| COc1cccc(/C=N/NC(=O)c2cc3c(OC)cccc3[nH]2)c1OC | 21.2 |
| COc1ccc(O)c(CN2CCC(n3nccc3NC(=O)c3ccccc3Cl)CC2)c1 | -40.6 |
| Cc1nn(C)c(Cl)c1/C=N/OC(=O)c1ccccc1 | 3.32 |
| CC(C)CC(NC(=O)C1CCC(=O)N1)C(=O)NC(CC(C)C)C(=O)N1CCCC1C(N)=O (stereo not drawn) ([pGlu]LLP-NH2; configuration not given here) | 19 |
| CC1CC(C)CN(S(=O)(=O)c2cccc3cccnc23)C1 (stereo not drawn) | 1.46 |
| Br.N=c1n(CC(=O)c2ccc(Br)s2)c2ccccc2n1Cc1ccccc1 | -61.7 |
| Cc1cc(Cl)c(S(=O)(=O)Nc2cccc(O)c2)cc1OCC(N)=O | 14.9 |
| N/C(=N\OC(=O)c1ccoc1)c1ccc(Br)cc1 | 3.25 |
| CCOC(=O)c1c(C)n(C)c2ccc(OCC(O)CN(CC)CC)cc12.Cl (stereo not drawn) | 2.9 |
| CN1/C(=C\P(=O)(N(C)C)N(C)C)C(C)(C)c2ccccc21 | -6.64 |
| CN(C)CCNC(=O)C1CCCNC1=O (stereo not drawn) | 4.72 |
| COc1ccc(CCC(=O)NNC(=O)Nc2cccc(Cl)c2)cc1 | 6.87 |
| CC(NC(=O)Cn1cc2c(n1)CCCCC2)c1ccccc1 (stereo not drawn) | 1.69 |
| O=C(OCc1csc(-c2ccccc2)n1)c1ccc(O)cc1 | 6.2 |
| Fc1ccc(-c2cc(C(F)(F)C(F)F)[nH]n2)cc1 | 0.577 |
| CCCCC#Cc1ccc2c(c1)COc1c3ccccc3nn1-2 | 7.84 |
| O=C(NNC(=O)c1ccc([N+](=O)[O-])cc1)NC1CCCCC1 | 4.67 |

| SMILES | hERG current change (%, negative = inhibition) at 10uM [%] |
| --- | --- |
| Fc1ccc(/C=C\c2nccc3c2[nH]c2ccccc23)cc1 | 9.91 |
| Cc1nnc(SCCN2CCOCC2)n1C.O=C(O)C(=O)O | -4.35 |
| Cc1ccc(CNC(=O)C2CC(c3cc(C(F)(F)F)cc(C(F)(F)F)c3)=NO2)o1 (stereo not drawn) | -12.1 |
| COc1ccccc1CN1CC(C(=O)NC2CCCCC2)CC1=O (stereo not drawn) | 6.2 |
| COc1ccc(NC(=O)NC(C)c2ccc3c(c2)OCO3)c(OC)c1 (stereo not drawn) | 19.1 |
| CC1=C(C(=O)Nc2ccc(C)cc2)C(c2cccs2)NC(=S)N1 (stereo not drawn) | -5.14 |
| CC(CCc1ccccc1)NC(=O)C1CC1 (stereo not drawn) | 9.46 |
| COc1ccc(S(=O)(=O)N[C@@H](CSCc2ccccc2)C(=O)O)cc1 | 11.3 |
| Cc1ccc(C(C(=O)NC2CCCCC2)N(Cc2ccccc2)C(=O)Cc2c[nH]c3ccccc23)o1 (stereo not drawn) | -8.07 |
| Cc1cccc(NC(=O)c2ccc([N+](=O)[O-])o2)c1C | 8.51 |
| CCOc1cc(/C=N/Nc2cc(C)nc(-n3nc(C)cc3C)n2)ccc1O | 3.09 |
| CCCCNC(=O)c1ccc(NC(C)=O)c(Cl)c1 | 17.6 |
| Nc1ccc(-c2nc3cc(N)ccc3n2CCO)cc1 | -2.75 |
| Cc1cnn(-c2cc(N/N=C/c3ccccc3)ncn2)c1 | 1.23 |
| Cc1ccc(C(=O)NC2CC(C)(C)NC(C)(C)C2)cc1S(=O)(=O)N1CCCCC1 | -2.6 |
| CCCCNC(=O)CCn1nc(-c2ccccc2)c2ccccc2c1=O | -12.1 |
| CCOc1ccc(-c2nnc3ccc(SCC(=O)NCc4ccco4)nn23)cc1 | -8.72 |
| CCCCS(=O)CC(COC)OC(=O)c1ccccc1 (stereo not drawn) | 2.46 |
| Clc1ccccc1-c1nc2nc3ccccc3nc2n1-c1ccc2c(c1)OCO2 | -8.41 |
